Assay results reported in patent US20090186915A1, “Compositions and methods for treatment of glioblastoma, gliosarcoma, NSCLC, and head and neck cancer” (Unibioscreen S. A., priority 2006, published 2009).

Tested on: PC-3 Human Prostate Cancer Cells
Test: Affymetrix whole genome microarray, gene targets
Details: 1 μM one time a day during five consecutive days
Description: We performed a first experiment of evaluation of gene targets by means of Affymetrix whole genome microarray using human PC-3 cancer cells grown in vitro and treated with the compound of the invention (N-{2-[2-(dimethylamino)ethyl]-1,3-dioxo-2,3-dihydro-1H-benzo[de]isoquinolin-5-yl}urea) either one time at 1 μM or 10 μM, or 5 times a week (one time a day during five consecutive days) at 1 μM (Full genome analyses were performed at the VIB MicroArray Facility (UZ Gasthuisberg, Catholic University of Leuven, Belgium) using Affymetrix Human Genome U133 set Plus 2.0 (High Wycombe, United Kingdom). […] The second set of genes targeted by this compound belongs to a category of genes labeled “amino acid metabolism” (Table 5).
PC-3 prostate cancer cells were either left untreated (control) or treated with UNBS5162 at 1) 1, 2) 10, or 3) 1 μM once a day for 5 consecutive days (with a washout process and renewal of culture medium before each new addition of compound, i.e., “5×1” μM). […]
In addition to R, an open-source software environment for statistical computing, a set of functions called BioConductor was used for the analysis and comprehension of the genomic data. […] The background correction, expression quantification and normalization were performed using Robust Multichip Analysis. […]

CN(C)CCN1C(=O)c2cccc3cc(NC(N)=O)cc(c23)C1=O [UNBS5162, N-{2-[2-(dimethylamino)ethyl]-1,3-dioxo-2,3-dihydro-1H-benzo[de]isoquinolin-5-yl}urea] was tested, and the “mRNA levels of E2F-1 (Affymetrix)” value was “decreased by two times”.
